Results reported in patent US20240390337A1, “RELA/RSH INHIBITORS FOR THE TREATMENT OR PREVENTION OF MEDICAL BIOFILMS” (DREXEL UNIVERSITY, priority 2021, published 2024).

Test system: E. coli C
Experiment: E. coli C aggregation assay
Settings: high salt, low temperature, amino acid starvation
Source text: Previously determined by Krol et al., E. coli C, under certain stress conditions, aggregates together and forms biofilms from a planktonic culture. This process is proposed to work under a CsrA stress response. In the case of E. coli C, the level of CsrA expression is lower due to the presence of an insertion sequence in its promoter. Because RelA is essential in the production of (p)ppGpp in inducing CsrA stress response, it was hypothesized that inhibition of RelA would limit aggregation of E. coli C. […] This aggregation process is proposed to be controlled by the CsrA/NhaR mechanism through overproduction of polysaccharide adhesin poly-β-1,6-N-acetyl-d-glucosamine (FIG. 31). However, more studies need to be performed to confirm RelA and (p)ppGpp involvement in the aggregation effect, including in the ΔrelA E. coli C mutant.
E. coli C was grown in LB Miller broth at 30° C. with shaking (250 rpm) with or without compounds. E. coli C ΔrelA mutant was also grown as a control. One milliliter of the culture was transferred to standard polypropylene spectrophotometer cuvettes to measure planktonic cells densities (OD600). Remaining cultures were vortexed ˜1 min and 1 mL was aliquoted into cuvettes to measure the total cell densities (OD600). Aggregation was calculated as a ratio of planktonic to total cell density.

O=C(O)CCNC(=O)c1cccc(-n2cc(Br)cn2)c1 [Compound C22, 3-(3-(4-bromo-1H-pyrazol-1-yl)benzamido)propanoic acid]
E. coli C aggregation: reduced the amount of E. coli C aggregation
